# Experimental data taken from the supplement of paper PMC10037445.
# Whole data set: some 2,900 compounds, median “IRF Lucia reporter activity, fold change vs agonist alone” near 0.9, cut for the highest 2% near 2.8. This is one part of the list.
# Experiments:
# RAW-Dual [1] = assay: IRF Lucia reporter activity, fold change vs agonist alone; higher = enhanced IRF activity; settings: agonist: MPLA (TLR4) […]
# In short: (§1)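 Reporter activity is given as fold change relative to agonist-alone wells. To measure it, 50 nL of library stock was pin-tooled onto RAW-Dual macrophages (50,000 cells/well, DMEM, 384-well plates), a PRR agonist followed 1 h later, and cells stayed at 37 °C, 5% CO2. Twenty hours on, supernatant was assayed for IRF (QuantiLuc luminescence) and NF-κB (QuantiBlue, 620 nm absorbance), and wells under 70% of agonist-control IncuCyte confluency in both mask sets were marked cytotoxic.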
# RAW-Dual [2] = assay: IRF Lucia reporter activity, fold change vs agonist alone; cytotoxicity flag (confluency mask): not cytotoxic; higher = enhanced IRF activity
# In short: as §1
# RAW-Dual [3] = assay: IRF Lucia reporter activity, fold change vs agonist alone; cytotoxicity flag (confluency mask): cytotoxic (confluency <70% of control); higher = enhanced IRF activity
# In short: as §1
# [4] = library stock concentration (final ~1000-fold dilution): 10 mM, cytotoxicity flag (confluency mask): not cytotoxic
# [5] = agonist: 3'3'-cGAMP (STING) 10 ug/mL
structure (smiles),measurement,setting,value
CC(Nc1ncnc2nc[nH]c12)c1nc2ccc(F)cc2c(=O)n1-c1ccccc1 (stereo not drawn),IRF Lucia reporter activity,RAW-Dual [1]; [4],1.27
CC(Nc1ncnc2nc[nH]c12)c1nc2ccc(F)cc2c(=O)n1-c1ccccc1 (stereo not drawn) (library stock concentration (final ~1000-fold dilution): 10 mM),IRF Lucia reporter activity,RAW-Dual [2]; [5],0.709
same,IRF Lucia reporter activity,RAW-Dual [2]; agonist: LPS (TLR4) 0.1 ug/mL,1.31
CCN1CCN(C(=O)Cc2ccc(Nc3ncc(F)c(Nc4ccc(C(=O)Nc5ccccc5Cl)cc4)n3)cc2)CC1,IRF Lucia reporter activity,"RAW-Dual [1]; library stock concentration (final ~1000-fold dilution): 10 mM, cytotoxicity flag (confluency mask): cytotoxic (confluency <70% of control)",0.0524
CCN1CCN(C(=O)Cc2ccc(Nc3ncc(F)c(Nc4ccc(C(=O)Nc5ccccc5Cl)cc4)n3)cc2)CC1 (library stock concentration (final ~1000-fold dilution): 10 mM),IRF Lucia reporter activity,RAW-Dual [3]; [5],0.0304
same,IRF Lucia reporter activity,RAW-Dual [3]; agonist: LPS (TLR4) 0.1 ug/mL,0.113
CNC(=O)Oc1cccc2ccccc12 (library stock concentration (final ~1000-fold dilution): 10 mM),IRF Lucia reporter activity,RAW-Dual [2]; [5],0.885
same,IRF Lucia reporter activity,RAW-Dual [2]; agonist: LPS (TLR4) 0.1 ug/mL,0.983
CNC(=O)Oc1cccc2ccccc12,IRF Lucia reporter activity,RAW-Dual [1]; [4],0.925
O.O=C1C=CCC2C3CCCN4CCCC(CN12)C34 (stereo not drawn) (library stock concentration (final ~1000-fold dilution): 10 mM),IRF Lucia reporter activity,RAW-Dual [2]; [5],0.769
same,IRF Lucia reporter activity,RAW-Dual [2]; agonist: LPS (TLR4) 0.1 ug/mL,1.02
C=CC1C2=CCOC(=O)C2=COC1OC1OC(CO)C(O)C(O)C1O (stereo not drawn),IRF Lucia reporter activity,RAW-Dual [1]; [4],1.17
C=CC1C2=CCOC(=O)C2=COC1OC1OC(CO)C(O)C(O)C1O (stereo not drawn) (library stock concentration (final ~1000-fold dilution): 10 mM),IRF Lucia reporter activity,RAW-Dual [2]; [5],1.11
same,IRF Lucia reporter activity,RAW-Dual [2]; agonist: LPS (TLR4) 0.1 ug/mL,1.25
CC(N)C(=O)NC(CO)C(=O)NC(C(=O)NC(C(=O)NC(C(=O)NC(CC(N)=O)C(=O)NC(Cc1ccc(O)cc1)C(=O)NC(C(N)=O)C(C)O)C(C)O)C(C)O)C(C)O (stereo not drawn) (library stock concentration (final ~1000-fold dilution): 10 mM water),IRF Lucia reporter activity,RAW-Dual [2]; [5],1.26
same,IRF Lucia reporter activity,RAW-Dual [2]; agonist: LPS (TLR4) 0.1 ug/mL,0.925
CCCCC(O)(Cn1cncn1)c1ccc(Cl)cc1Cl (stereo not drawn) (library stock concentration (final ~1000-fold dilution): 10 mM),IRF Lucia reporter activity,RAW-Dual [3]; [5],1.23
same,IRF Lucia reporter activity,RAW-Dual [3]; agonist: LPS (TLR4) 0.1 ug/mL,0.66
ClC(Cl)=C(c1ccc(Cl)cc1)c1ccc(Cl)cc1,IRF Lucia reporter activity,RAW-Dual [1]; [4],1.84
ClC(Cl)=C(c1ccc(Cl)cc1)c1ccc(Cl)cc1 (library stock concentration (final ~1000-fold dilution): 10 mM),IRF Lucia reporter activity,RAW-Dual [2]; [5],1.21
same,IRF Lucia reporter activity,RAW-Dual [2]; agonist: LPS (TLR4) 0.1 ug/mL,2.54
COc1ccc(N(C(=O)Oc2c(C)cccc2C)c2ccnc(Nc3ccc(N4CCN(C)CC4)cc3)n2)c(OC)c1,IRF Lucia reporter activity,RAW-Dual [1]; [4],1.01
COc1ccc(N(C(=O)Oc2c(C)cccc2C)c2ccnc(Nc3ccc(N4CCN(C)CC4)cc3)n2)c(OC)c1 (library stock concentration (final ~1000-fold dilution): 10 mM),IRF Lucia reporter activity,RAW-Dual [2]; [5],0.582
same,IRF Lucia reporter activity,RAW-Dual [2]; agonist: LPS (TLR4) 0.1 ug/mL,1.45
COC1=C[C@@H]2[C@@H]3Cc4ccc(OC)c(O)c4[C@]2(CCN3C)CC1=O (library stock concentration (final ~1000-fold dilution): 10 mM),IRF Lucia reporter activity,RAW-Dual [2]; [5],0.9
same,IRF Lucia reporter activity,RAW-Dual [2]; agonist: LPS (TLR4) 0.1 ug/mL,1.22
CC12NC(Cc3ccccc31)c1ccccc12.O=C(O)/C=C\C(=O)O (stereo not drawn),IRF Lucia reporter activity,RAW-Dual [1]; [4],1.1
CC12NC(Cc3ccccc31)c1ccccc12.O=C(O)/C=C\C(=O)O (stereo not drawn) (library stock concentration (final ~1000-fold dilution): 10 mM),IRF Lucia reporter activity,RAW-Dual [2]; [5],1.04
same,IRF Lucia reporter activity,RAW-Dual [2]; agonist: LPS (TLR4) 0.1 ug/mL,0.977
Cl.O=C1CCC2(O)C3Cc4ccc(O)c5c4C2(CCN3CC2CC2)C1O5 (stereo not drawn),IRF Lucia reporter activity,RAW-Dual [1]; [4],0.989
Cl.O=C1CCC2(O)C3Cc4ccc(O)c5c4C2(CCN3CC2CC2)C1O5 (stereo not drawn) (library stock concentration (final ~1000-fold dilution): 10 mM),IRF Lucia reporter activity,RAW-Dual [2]; [5],0.982
same,IRF Lucia reporter activity,RAW-Dual [2]; agonist: LPS (TLR4) 0.1 ug/mL,0.99
CNC1C(O)C(OC2C(N)CC(N)C(OC3OC(C(C)O)C(O)C(O)C3N)C2O)OCC1(C)O.O=S(=O)(O)O.O=S(=O)(O)O (stereo not drawn) (library stock concentration (final ~1000-fold dilution): 10 mM water),IRF Lucia reporter activity,RAW-Dual [2]; [5],1.47
same,IRF Lucia reporter activity,RAW-Dual [2]; agonist: LPS (TLR4) 0.1 ug/mL,0.916
CNC1C(O)C(OC2C(N)CC(N)C(OC3OC(C(C)O)C(O)C(O)C3N)C2O)OCC1(C)O.O=S(=O)(O)O.O=S(=O)(O)O (stereo not drawn),IRF Lucia reporter activity,"RAW-Dual [1]; library stock concentration (final ~1000-fold dilution): 10 mM water, cytotoxicity flag (confluency mask): not cytotoxic",1.47
CC1(C)C(=O)N(c2ccc(C#N)c(C(F)(F)F)c2)C(=O)N1CCCCO,IRF Lucia reporter activity,RAW-Dual [1]; [4],1.03
CC1(C)C(=O)N(c2ccc(C#N)c(C(F)(F)F)c2)C(=O)N1CCCCO (library stock concentration (final ~1000-fold dilution): 10 mM),IRF Lucia reporter activity,RAW-Dual [2]; [5],1.1
same,IRF Lucia reporter activity,RAW-Dual [2]; agonist: LPS (TLR4) 0.1 ug/mL,1.39
O=C(OC1C[N+]2(CCCOc3ccccc3)CCC1CC2)C(O)(c1cccs1)c1cccs1 (stereo not drawn) (library stock concentration (final ~1000-fold dilution): 10 mM),IRF Lucia reporter activity,RAW-Dual [2]; [5],1.07
same,IRF Lucia reporter activity,RAW-Dual [2]; agonist: LPS (TLR4) 0.1 ug/mL,1.3
O=C(OC1C[N+]2(CCCOc3ccccc3)CCC1CC2)C(O)(c1cccs1)c1cccs1 (stereo not drawn),IRF Lucia reporter activity,RAW-Dual [1]; [4],1.17
CC(C)(C)c1cc(C=C(C#N)C#N)cc(Br)c1O (library stock concentration (final ~1000-fold dilution): 10 mM),IRF Lucia reporter activity,RAW-Dual [3]; [5],0.305
same,IRF Lucia reporter activity,RAW-Dual [3]; agonist: LPS (TLR4) 0.1 ug/mL,0.69
